The IC50 comes from the fitted curve, where viability falls to half of the control; a limit (>, <) means that the fit lies beyond the doses tested. AUC sums up the same curve from the lowest dose to the 256-fold higher top dose; it is 1 without any effect and falls as sensitivity rises. For part of these data: A top dose marked as inferred is not printed in the source and was worked back from the curve model. For part of these data: Where an entry number is given, a second screen of the drug exists; the two often differ.
Legend:
Assay in all cases: Viability of human cancer cell lines after 72 h of drug (GDSC screen)
Nilotinib = compound: Cc1cn(-c2cc(NC(=O)c3ccc(C)c(Nc4nccc(-c5cccnc5)n4)c3)cc(C(F)(F)F)c2)cn1 [Nilotinib]; settings: top dose 2 µM
Experimental: (§1)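 Human cancer cell lines in 384-well plates, medium with 10% serum, drug for 72 h over a 256-fold dose range (nine 2-fold or five 4-fold steps up to the top dose). Adherent lines were fixed and stained with the nucleic acid dye Syto60, suspension lines read with resazurin; signal relative to control wells, capped at 0 and 100%. One two-parameter sigmoid per drug and line, fitted in a mixed model over all curves with the slope shared within a line.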

T0901317 = compound: O=S(=O)(c1ccccc1)N(CC(F)(F)F)c1ccc(C(O)(C(F)(F)F)C(F)(F)F)cc1 [T0901317]; settings: top dose 10.24 µM; top dose inferred
Experimental: as §1

Bicalutamide = compound: CC(O)(CS(=O)(=O)c1ccc(F)cc1)C(=O)Nc1ccc(C#N)c(C(F)(F)F)c1 [Bicalutamide]; settings: top dose inferred
Experimental: as §1

AUY922 = compound: CCNC(=O)c1noc(-c2cc(C(C)C)c(O)cc2O)c1-c1ccc(CN2CCOCC2)cc1 [AUY922]; settings: top dose 0.256 µM; top dose inferred
Experimental: as §1

LFM-A13 = compound: C/C(O)=C(\C#N)C(=O)Nc1cc(Br)ccc1Br [LFM-A13]; settings: top dose 16 µM; top dose inferred
Experimental: as §1

TW-37 = compound: CC(C)c1ccccc1Cc1cc(C(=O)Nc2ccc(S(=O)(=O)c3ccccc3C(C)(C)C)cc2)c(O)c(O)c1O [TW-37]; settings: top dose 5 µM
Experimental: as §1

KIN001-270 = compound: Cc1ccc(Nc2cc(-c3cccc(N4C(=O)c5ccccc5C4=O)c3)ncn2)cc1NS(C)(=O)=O [KIN001-270]; settings: top dose 20 µM; top dose inferred
Experimental: as §1

MP470 = compound: S=C(NCc1ccc2c(c1)OCO2)N1CCN(c2ncnc3c2oc2ccccc23)CC1 [MP470]; settings: top dose 20 µM; top dose inferred
Experimental: as §1

Gemcitabine = compound: Nc1ccn([C@@H]2O[C@H](CO)[C@@H](O)C2(F)F)c(=O)n1 [Gemcitabine]; settings: top dose 1.024 µM
Experimental: as §1

[1] = top dose 1.024 µM, screen: GDSC drug entry 150
[2] = top dose 10 µM, screen: GDSC drug entry 1502

Cell Line | AUC (Nilotinib) | IC50 (Nilotinib) [nM] | AUC (T0901317) | IC50 (T0901317) [nM] | AUC (Bicalutamide; [1]) | IC50 (Bicalutamide; [1]) [nM] | AUC (Bicalutamide; [2]) | IC50 (Bicalutamide; [2]) [nM] | AUC (AUY922) | IC50 (AUY922) [nM] | AUC (LFM-A13) | IC50 (LFM-A13) [nM] | AUC (TW-37) | IC50 (TW-37) [nM] | AUC (KIN001-270) | IC50 (KIN001-270) [nM] | AUC (MP470) | IC50 (MP470) [nM] | AUC (Gemcitabine) | IC50 (Gemcitabine) [nM]
CAL-78 (chondrosarcoma, adherent) | 0.986 | > 2000 | 0.986 | > 10200 | 0.986 | > 1020 | 0.982 | > 10000 | 0.882 | > 256 | 0.97 | > 16000 | 0.611 | 660 | 0.986 | > 20000 | 0.975 | > 20000 | 0.986 | > 1020
H2795 (mesothelioma, adherent) | 0.963 | > 2000 | 0.987 | > 10200 | 0.987 | > 1020 | – | – | 0.804 | 126 | 0.9 | > 16000 | 0.457 | 239 | 0.953 | > 20000 | 0.987 | > 20000 | 0.93 | > 1020
H2373 (mesothelioma, adherent) | 0.983 | > 2000 | 0.957 | > 10200 | 0.983 | > 1020 | 0.964 | > 10000 | 0.722 | 81.1 | 0.887 | > 16000 | 0.507 | 327 | 0.963 | > 20000 | 0.949 | > 20000 | 0.636 | 168
SK-N-AS (neuroblastoma, adherent) | 0.972 | > 2000 | 0.965 | > 10200 | 0.983 | > 1020 | – | – | 0.823 | 182 | 0.958 | > 16000 | 0.474 | 263 | 0.98 | > 20000 | 0.931 | > 20000 | 0.892 | > 1020
IHH-4 (thyroid, semi-adherent) | 0.984 | > 2000 | 0.961 | > 10200 | 0.978 | > 1020 | 0.992 | > 10000 | 0.367 | 7.43 | 0.977 | > 16000 | 0.234 | 64.9 | 0.96 | > 20000 | 0.959 | > 20000 | 0.027 | < 4
PCI-15A (head and neck, adherent) | 0.986 | > 2000 | 0.973 | > 10200 | 0.988 | > 1020 | 0.977 | > 10000 | 0.594 | 29 | 0.982 | > 16000 | 0.59 | 551 | 0.971 | > 20000 | 0.966 | > 20000 | 0.535 | 79.9
JHH-7 (liver, adherent) | 0.981 | > 2000 | 0.94 | > 10200 | 0.989 | > 1020 | 0.96 | > 10000 | 0.561 | 23.2 | 0.989 | > 16000 | 0.607 | 601 | 0.973 | > 20000 | 0.762 | 6760 | 0.268 | 14.7
CAPAN-1 (pancreas, adherent) | 0.975 | > 2000 | 0.98 | > 10200 | 0.985 | > 1020 | – | – | 0.744 | 87.7 | 0.959 | > 16000 | 0.908 | > 5000 | 0.986 | > 20000 | 0.933 | > 20000 | 0.272 | 13.2
VMRC-MELG (melanoma, adherent) | 0.988 | > 2000 | 0.982 | > 10200 | 0.989 | > 1020 | – | – | 0.619 | 34.6 | 0.952 | > 16000 | 0.533 | 387 | 0.985 | > 20000 | 0.958 | > 20000 | 0.985 | > 1020
SNU-449 (liver, adherent) | 0.986 | > 2000 | 0.986 | > 10200 | 0.981 | > 1020 | 0.977 | > 10000 | 0.532 | 19.8 | 0.798 | 8470 | 0.537 | 399 | 0.949 | > 20000 | 0.657 | 3570 | 0.322 | 19.3
HuCCT1 (biliary tract, adherent) | 0.971 | > 2000 | 0.983 | > 10200 | 0.98 | > 1020 | 0.98 | > 10000 | 0.479 | 14 | 0.949 | > 16000 | 0.541 | 410 | 0.979 | > 20000 | 0.98 | > 20000 | 0.351 | 23.5
MFE-296 (endometrium, adherent) | 0.962 | > 2000 | 0.976 | > 10200 | 0.985 | > 1020 | 0.983 | > 10000 | 0.543 | 21.2 | 0.959 | > 16000 | 0.083 | < 19.5 | 0.975 | > 20000 | 0.935 | > 20000 | 0.346 | 23.1
G-361 (melanoma, adherent) | 0.988 | > 2000 | 0.988 | > 10200 | – | – | 0.981 | > 10000 | 0.53 | 19.3 | 0.975 | > 16000 | 0.411 | 180 | 0.988 | > 20000 | 0.868 | 17000 | 0.243 | 12.1
HOP-92 (large cell lung carcinoma, adherent) | 0.982 | > 2000 | 0.984 | > 10200 | 0.984 | > 1020 | 0.976 | > 10000 | 0.671 | 52.1 | 0.973 | > 16000 | 0.449 | 222 | 0.953 | > 20000 | 0.981 | > 20000 | 0.82 | 711
